Laboratory results as given in PubChem BioAssay AID463173 (ICCB-Longwood Screening Facility, Harvard Medical School, 2010).
Hit rate of the full screen: of about 52,000 compounds, about 4,300 (8.3%) were called active. Rule as the data show it: active = survival mostly below about 52% (no sharp cut-off); inactive = mostly above about 56%. The list shows a part of the results.

tested on: DeltatarO mutant; assay: growth inhibition of S. aureus wild type versus tarO mutant, primary screen, teichoic acid synthesis inhibitors, RN4220, OD600 (AID 463173); conditions: OD600, 18 h, active compounds read low, screened at 18.75 µg/mL (by protocol)

SMILES | survival
CCOc1ccc(CN2C(=O)c3ccccc3Sc3ccc(C(=O)NC)cc32)cc1 | inactive: 85%
COC(=O)c1ccc2c(c1)N(CC(=O)Nc1cccc(Cl)c1C)C(=O)c1ccccc1S2 | inactive: 74%
CC(C)NC(=O)Cn1c(=O)nc(-c2ccccc2F)c2cc(Cl)ccc21 | inactive: 73%
CC(O)/C=C/c1ccncc1 (centres undefined) | inactive: 84%
CCCCN(C)CCCNC(=O)Cn1ncc2c3ccccc3n(Cc3ccccc3F)c2c1=O | inactive: 114%
Cc1noc(-c2ccc(N3CCC(C)CC3)c([N+](=O)[O-])c2)n1 | inactive: 60%
COc1ccc(NS(=O)(=O)c2cc3c(cc2C)NC(=O)CO3)c(OC)c1 | inactive: 86%
COc1cc(NC(=O)C2CCN(S(=O)(=O)c3ccc4c(c3)oc(=O)n4C)CC2)cc(OC)c1 | inactive: 102%
O=C(CSC1=Nc2ccccc2C2=NC(Cc3ccccc3)C(=O)N12)Nc1ccccc1C(F)(F)F (centres undefined) | inactive: 86%
CCOC(=O)N1CCc2c(sc(NCc3ccc(N(C)C)cc3)c2C(=O)Nc2ccc(OC)cc2)C1 | inactive: 77%
O=c1[nH]c(O)c(C=NCc2ccc3c(c2)OCO3)c(=O)[nH]1 | inactive: 86%
COc1ccc(NC(=O)CCc2c(C)nc3c(c2C)c(=O)n(C)c(=O)n3C)cc1OC | inactive: 100%
O=C1N(Cc2cccc(C(F)(F)F)c2)c2ccccc2S(=O)(=O)N1c1cccc(Cl)c1 | inactive: 80%
COc1ccc(CNC(=O)c2cc3cc(S(=O)(=O)N4CCCCC4)ccc3n2C)c(OC)c1 | inactive: 91%
COc1ccc(NC(=O)CSc2nc(-c3cccs3)cc(C(F)(F)F)c2C#N)cc1 | inactive: 88%
Cc1c(Cl)cccc1N1C(N)=C(C#N)C(c2cc(CN3CCOCC3)cs2)C2=C1CCCC2=O (centres undefined) | inactive: 128%
Nc1nc(N)c2nccnc2n1 | inactive: 115%
COc1ccc(C(c2nnnn2C2CCCC2)N2CCN(C(=O)c3ccco3)CC2)cc1OC (centres undefined) | inactive: 83%
Cc1cccc(N2CC(C)Cn3c2nc2c3c(=O)n(CC(=O)O)c(=O)n2C)c1 (centres undefined) | inactive: 133%
CCc1cccc(NC(=O)CCc2nc3cccnc3n2-c2ccccc2)c1 | inactive: 91%
CSc1ccc(CCNC(=O)c2ccc(CS(=O)(=O)c3ccc(Br)cc3)o2)cc1 | inactive: 87%
COc1ccc2[nH]c(=O)c(C(c3nnnn3Cc3ccccc3)N3CCc4ccccc43)cc2c1 (centres undefined) | inactive: 50%
CCOc1cc(CNC(=O)c2ccc3c(c2)N(C)C(=O)C2CCCCN32)cc(OCC)c1OCC (centres undefined) | inactive: 106%
CCCN(CCC)c1nc(-c2ccccc2F)nc2ccccc12 | active: 4%
